Experimental data as given in paper PMC4336329 (PLoS ONE, 2015).
Out of some 310,000 compounds screened, about 2,200 (0.71%) showed an effect of 50% or more. Effects have a minus sign here. The list shows a part of the results.

target: human ether-à-go-go-related gene (hERG) potassium channel (human, UniProt Q12809); experiment: primary screen, population patch clamp on CHO cells stably expressing hERG
Sequence (Q12809 whole entry, looked up): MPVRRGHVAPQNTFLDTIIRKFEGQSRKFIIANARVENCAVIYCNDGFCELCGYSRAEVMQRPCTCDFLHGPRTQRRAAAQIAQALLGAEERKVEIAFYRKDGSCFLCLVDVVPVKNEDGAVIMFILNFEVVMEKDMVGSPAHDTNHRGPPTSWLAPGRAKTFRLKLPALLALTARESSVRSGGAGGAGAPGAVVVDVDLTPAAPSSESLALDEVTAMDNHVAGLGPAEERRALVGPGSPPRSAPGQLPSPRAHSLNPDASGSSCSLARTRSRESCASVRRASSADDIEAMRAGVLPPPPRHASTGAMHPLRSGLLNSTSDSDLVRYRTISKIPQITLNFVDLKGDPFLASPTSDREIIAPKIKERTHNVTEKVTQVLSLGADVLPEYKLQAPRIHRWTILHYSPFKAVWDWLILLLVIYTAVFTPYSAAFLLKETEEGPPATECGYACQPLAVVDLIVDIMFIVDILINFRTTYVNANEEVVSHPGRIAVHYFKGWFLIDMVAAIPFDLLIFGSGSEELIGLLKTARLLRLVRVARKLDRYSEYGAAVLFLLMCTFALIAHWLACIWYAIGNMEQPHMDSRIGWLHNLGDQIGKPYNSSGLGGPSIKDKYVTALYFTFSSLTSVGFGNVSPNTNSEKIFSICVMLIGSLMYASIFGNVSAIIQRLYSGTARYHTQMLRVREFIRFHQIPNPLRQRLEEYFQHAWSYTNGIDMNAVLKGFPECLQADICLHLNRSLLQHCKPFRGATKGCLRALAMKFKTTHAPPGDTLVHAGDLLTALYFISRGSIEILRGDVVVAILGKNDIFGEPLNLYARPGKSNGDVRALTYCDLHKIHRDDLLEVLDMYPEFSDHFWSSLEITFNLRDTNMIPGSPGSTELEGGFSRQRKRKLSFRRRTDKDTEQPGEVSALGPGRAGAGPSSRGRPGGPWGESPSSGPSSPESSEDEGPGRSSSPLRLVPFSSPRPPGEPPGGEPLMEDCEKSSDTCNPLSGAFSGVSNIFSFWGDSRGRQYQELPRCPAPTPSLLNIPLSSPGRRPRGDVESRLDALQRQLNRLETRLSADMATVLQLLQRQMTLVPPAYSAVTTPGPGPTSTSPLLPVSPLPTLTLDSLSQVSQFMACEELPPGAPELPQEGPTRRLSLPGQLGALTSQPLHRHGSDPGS

Row | SMILES | hERG current change (%, negative = inhibition) at 1uM
1 | O=C(COc1ncnc2ccc(Br)cc12)NC1CCCC1 | 10.4%
2 | Cc1nn(CCC#N)c(NC(=O)c2ccccc2)c1P(=O)(Nc1ccc(Br)cc1)N1CCOCC1 (stereo not drawn) | 10.5%
3 | CC1CCN(S(=O)(=O)c2ccc(C(=O)Nc3nnc(C4=COCCO4)o3)cc2)CC1 | 12.5%
4 | Cc1c(OCC(=O)N(C)C)ccc2c(-c3ccccc3)cc(=O)oc12 | 16.9%
5 | O=C(c1ccoc1)N1CCC2(CCCN(Cc3ccc(F)c(F)c3)C2)C1 (stereo not drawn) | -6.57%
6 | O=C(NCCc1nc2ccccc2[nH]1)Nc1ccccc1 | 3.7%
7 | CC(=O)NC12CC3CC(C1)CC(C(=O)Nc1c(C)n(C)n(-c4ccccc4)c1=O)(C3)C2 | 10.6%
8 | CCOC(=O)c1ccc(N2C(=O)CC(N(Cc3ccc4c(c3)OCO4)C(=O)Nc3ccccc3)C2=O)cc1 (stereo not drawn) | 1.35%
9 | Cc1ccc(-c2c(C(=O)NCc3ccccc3)oc(=O)c3ccccc23)cc1 | 7.89%
10 | CC(C)N=C(NS(=O)(=O)c1ccc(Br)cc1)c1ccc(Cl)cc1 | 8.13%
11 | c1ccc2c(c1)nc1n2CCS1 | 8.43%
12 | CC(CN1CCOCC1)OC(=O)c1ccc(C(C)(C)C)cc1.Cl (stereo not drawn) | 9.47%
13 | Cc1cccc(NC(=S)NC2CCCCCC2)c1C | 15.7%
14 | COc1ccc(NC(=O)c2ccc3c(c2)N(C)CCS3)cc1 | 2.55%
15 | COc1ccc2c(=O)c3c(=O)n(CCc4ccccc4)c(C(C)C)nc3oc2c1 | 1.01%
16 | CC(C)(C)NS(=O)(=O)c1ccc(CCC(=O)Nc2ccc3c(c2)OCO3)cc1 | 5.13%
17 | CCOC(=O)c1sc(=S)n(C)c1NC(=O)c1ccccc1 | 14.9%
18 | CNc1ccccc1C(C)(C)c1cn(-c2ccc([N+](=O)[O-])cc2)nn1 | 18.1%
19 | O=C(NCC(F)(F)F)c1nn(Cc2ccccc2)c(=O)c2ccccc12 | 13%
20 | O=C(Nc1ccccc1N1CCCC1)c1cc2ccccc2o1 | 16.4%
21 | O=C(CN1C(=O)c2ccccc2S1(=O)=O)c1cccc(Br)c1 | 8.89%
22 | COc1ccc(NC(=O)c2nc3nccc(C)n3n2)cn1 | 7.89%

Row | SMILES | hERG current change (%, negative = inhibition) at 1uM
23 | Br.Cc1ccc(C)c(C(=O)Cn2c(NCCO)nc3ccccc32)c1 | 13.3%
24 | COc1cc(NC(=S)NC(=O)c2c(OC)cccc2OC)ccc1NC(=O)c1cccs1 | 2.41%
25 | CN(C)Cc1c(C(=O)N/N=C/CCc2ccccc2)nnn1-c1nonc1N | 2.26%
26 | Cc1cccc(Nc2nc(C)cc(C)n2)c1.Cl | 21.9%
27 | O=C(c1cn[nH]c1)c1cc(F)ccc1O | 11.2%
28 | O=C1OC(Nc2ccc3ncccc3c2)c2ccccc21 (stereo not drawn) | 19.9%
29 | CCOc1cc(/C=C/C(=O)OCC(=O)NC2CCS(=O)(=O)C2)ccc1OCc1ccccc1 (stereo not drawn) | 4.3%
30 | CCOc1ccc(/C=N/NC(=O)c2cc(-c3cccn3C)n[nH]2)cc1 | 19.3%
31 | O=C1CC[C@H](O)CCN1CCSc1ccc(Br)cc1 | 9.22%
32 | CC(C)(C)NC(=O)CN(C(=O)CS(=O)CC(=O)Nc1ccc(F)cc1)c1cccc(F)c1 (stereo not drawn) | 8.75%
33 | CCC(C)(C)NC(=O)CN(C(=O)CCC(=O)Nc1cc(C)ccn1)c1ccc2c(c1)OCO2 | 7.31%
34 | Cn1c(SCC(=O)Nc2cccc(O)c2)nnc1-c1ccc(S(=O)(=O)N2CCOCC2)cc1 | 9.1%
35 | CCc1nnc(NS(=O)(=O)c2ccc(NC(=O)c3cc4ccccc4oc3=O)cc2)s1 | 7.18%
36 | O=[N+]([O-])c1ccc(Oc2ncccn2)cc1 | 8.42%
37 | O=C(Cn1cnc2c(nnn2-c2cccc(F)c2)c1=O)Nc1ccc2c(c1)OCCO2 | 12%
38 | COc1cc2sc3ccc(C#CC4(O)CCCCC4)cc3c(=O)c2cc1OC | 16.6%
39 | O=C1NC(c2ccc(O)cc2)Nc2ccccc21 (stereo not drawn) | 3.49%
40 | COCCNC(=O)c1c(NC(=O)c2ccco2)n(Cc2ccccc2)c2nc3ccccc3nc12 | 2.66%
41 | Cc1ccc(SCc2cc(=O)[nH]c(N3CCN(Cc4ccccc4)CC3)n2)cc1 | 12.3%
42 | O=C(O)COc1ccc(Br)cc1CP(=O)(c1ccccc1)c1ccccc1 | 9.68%
43 | COc1cc(CNCc2cccs2)ccc1OCC(N)=O.Cl | 6.75%
44 | O=C(CN(c1ccc(F)cc1)S(=O)(=O)c1ccccc1)NC1CC2CCC1C2 (stereo not drawn) | 8.53%

Row | SMILES | hERG current change (%, negative = inhibition) at 1uM
45 | Cc1ccc(NC(=S)NC2CC3CCCC(C2)N3Cc2ccco2)cc1 (stereo not drawn) | -36.1%
46 | Cc1ccc(-c2nnn(CC(=O)N(CCO)C(C(=O)NC3CCCC3)c3ccc(F)cc3)n2)o1 (stereo not drawn) | 6.32%
47 | Cc1nnc(SCc2nc3ccccc3nc2C)s1 | 8.4%
48 | COc1nc(N(c2ccccc2)c2ccccc2)nc(-n2ccnc2)n1 | -3.13%
49 | COc1ccc(-c2cc(C(=O)OC3CCOC3=O)c3ccccc3n2)cc1 (stereo not drawn) | 3.48%
50 | O=C(Nc1nccs1)C1CCN(S(=O)(=O)c2ccc3c(c2)OCCCO3)CC1 | -3.99%
51 | Cc1c(Cl)cccc1NC(=O)CCS(=O)(=O)c1cccc2nonc12 | 6.07%
52 | O=C(CN1CCc2ccccc2C1)Nc1cc(S(=O)(=O)N2CCOCC2)ccc1N1CCCC1 | 4.22%
53 | COc1ccc(NC(=O)NNc2cc(N3CCOCC3)nc(N3CCOCC3)n2)cc1 | 5.41%
54 | COc1ccc(C(=O)NC(=S)N2CCOCC2)cc1[N+](=O)[O-] | 7.84%
55 | Cn1nc(C(=O)OCC(=O)NCCc2ccccc2)c2ccccc2c1=O | 4.59%
56 | CS(=O)(=O)N(CC(=O)Nc1ccc2c(c1)OCCO2)Cc1ccccc1 | 13.1%
57 | O=C(CN1C(=O)c2ccccc2C1=O)Nc1cccnc1 | 9.29%
58 | CC(C)(C)c1ccc(O)c(N=Cc2c(O)ccc3ccccc23)c1 | 4.34%
59 | CC(=O)Oc1c(-c2ccco2)oc2ccccc2c1=O | 5.11%
60 | Cc1cccc(NC(=S)N2CCN(c3cc(C)ccc3C)CC2)c1 | 15.8%
61 | CCn1cc(S(=O)(=O)Nc2cccnc2)cn1 | 13.7%
62 | CC(=O)N1CCc2cc(C(=O)CN3CCN(C(=O)c4ccco4)CC3)ccc21 | 12.6%
63 | CCOCC(=O)Nc1ccc2c(c1)OCCO2 | 13.1%
64 | COc1cc(NC(=O)c2cc([N+](=O)[O-])ccc2NC(=O)CNCc2ccccn2)cc(OC)c1 | 14.5%
65 | O=C(COC(=O)c1cnccn1)c1ccc2ccccc2c1 | 14.3%
66 | COc1ccccc1N(C)S(=O)(=O)c1ccc(Cl)c(C(=O)NC2=NCCS2)c1 | 21.6%

Row | SMILES | hERG current change (%, negative = inhibition) at 1uM
67 | Cn1cccc1C(=O)N1CCc2ccccc2C1 | 12.9%
68 | CCCCOc1ccc(C2/C(=C(\O)c3ccc4c(c3)OCCO4)C(=O)C(=O)N2CCCN2CCOCC2)cc1 (stereo not drawn) | 16.1%
69 | Cc1cnc(NC(=O)c2ccc(Cl)nc2)s1 | 14.9%
70 | CC(C)OCCCNC(=O)c1ccc2c(=O)n(Cc3ccc4c(c3)OCO4)c(=S)[nH]c2c1 | 6.77%
71 | Cc1ccc(C(C)C)c(OCc2ccc(C(=O)N/N=C/c3ccc(O)c(O)c3)cc2)c1 | 11.3%
72 | O=C(Cn1c(NCCO)nc2ccccc21)NCCc1ccc(F)cc1 | 8.91%
73 | CN(C)c1ccc(C(=O)Nc2cc(C(F)(F)F)ccc2-n2cncn2)cc1 | 4.88%
74 | CC(C)n1ncc2c(C(=O)N3CCN(Cc4ccc(Cl)s4)CC3)cc(C3CC3)nc21 | 5.19%
75 | COc1ccc2c(CC(=O)NCC3CCC(C(=O)O)CC3)cc(=O)oc2c1 (stereo not drawn) | 2.86%
76 | O=C(O)CCn1cc(C=C2C(=O)NC(=S)NC2=O)c(-c2cccc(Br)c2)n1 | 17.2%
77 | CSc1ccccc1OCc1cc(C(=O)N(C)Cc2ccc(C)o2)no1 | 7.87%
78 | CCc1cc(=O)oc2cc(OCC(=O)OC)c(Cl)cc12 | -2.13%
79 | CC(C)C1Cc2c(sc3[nH]c(=S)n(Cc4ccccc4)c(=O)c23)CO1 (stereo not drawn) | 10.6%
80 | CCS(=O)(=O)N1CCC(C(=O)NCc2ccco2)CC1 | 10.1%
81 | CCOC(=O)C[C@H]1c2ccc(C(F)(F)F)cc2S(=O)(=O)N1Cc1ccccc1 | 7.82%
82 | CCO[C@@H]1OC(C(=O)NCc2ccccc2)=C[C@H](c2ccc(C(F)(F)F)cc2)[C@H]1CCCO | -0.0755%
83 | C[C@H]1CN=C(Nc2ccccc2)N1CCCC1CCCCC1 | -33.9%
84 | Cc1cc(C(=O)Nc2ccccc2)c2ccccc2n1 | 17.5%
85 | O=C(NC(=S)NC(CO)Cc1ccccc1)c1ccc(F)cc1 (stereo not drawn) | 9.49%
86 | O=C(Nc1ccccc1)c1ccccc1NC(=O)[C@H]1CCCC[C@H]1C(=O)O | 15.3%
87 | O=C(C1CC(=O)N(C2CCCC2)C1)N1CCC(Cc2ccccc2)CC1 (stereo not drawn) | 9.43%
